Results from patent publication US20230192896A1 (BIOVERATIV THERAPEUTICS, published 2023).

Biological target: T1, non-activatable Factor X (FXn) (Homo sapiens (Human), UniProt P00742, single biotin on the C-terminal BioTag)
T1 construct: also called BIIB-FX-015
Assay: BLI; class meaning: paragraph 285

T1 sequence (P00742 other isoform, or with tags, fused parts or gaps limits assumed): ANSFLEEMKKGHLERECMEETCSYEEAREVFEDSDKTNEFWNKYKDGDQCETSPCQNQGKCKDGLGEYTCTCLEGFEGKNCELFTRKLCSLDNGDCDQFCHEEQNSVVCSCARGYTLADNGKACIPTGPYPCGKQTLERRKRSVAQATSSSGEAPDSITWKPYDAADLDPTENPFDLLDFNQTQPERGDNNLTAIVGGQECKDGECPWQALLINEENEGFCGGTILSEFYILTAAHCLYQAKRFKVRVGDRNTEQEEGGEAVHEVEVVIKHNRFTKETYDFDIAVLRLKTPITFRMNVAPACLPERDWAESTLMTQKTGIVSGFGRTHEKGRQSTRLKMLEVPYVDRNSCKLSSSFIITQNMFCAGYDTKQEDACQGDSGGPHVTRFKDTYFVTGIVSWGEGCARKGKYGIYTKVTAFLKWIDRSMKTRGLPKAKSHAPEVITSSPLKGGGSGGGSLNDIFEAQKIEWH

- binding result: binds
B1: BIIB-12-1334 (antibody, V domains shown)
VH: QVQLVESGGGVVQPGRSLRLSCAASGFTFSSYGMHWVRQAPGKGLEWVAVISYDGSNKYYADSVKGRFTISRDNSKNTLYLQMNSLRAEDTAVYYCARVPRKQTGHVDYWGQGTLVTVSS
VL: [here about 100 residues without letters]IGTPWTFGGGTKVEIK
notes: IgG
